The results in this text go back to PubChem BioAssay AID488969 (Vanderbilt High Throughput Screening Facility, 2010).

In all, about 110,000 compounds were measured (“z-score”: median about -0.1, highest 2% from about 2 on). This is one part of the list. Calls of active or inactive are those of the source.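 The calls were made as follows: active = z-score in the third read window above 3 or below -3; inactive = the rest.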

The assay has as its target Metabotropic glutamate receptor 8 (Rattus norvegicus) (UniProt P70579). The experiment in a line: mGluR8 Gi/Go-coupled signaling modulation – cell-based, rat, thallium flux, HTS, primary screen (AID 488969). Conditions: HEK293 rat mGluR8, GIRK (G protein-gated inwardly rectifying potassium channel) thallium flux, FluoZin2; at 10 µM; stronger effect = higher value; submaximal glutamate (EC20) added with thallium.
Chain of UniProt P70579 (P70579 whole entry, looked up): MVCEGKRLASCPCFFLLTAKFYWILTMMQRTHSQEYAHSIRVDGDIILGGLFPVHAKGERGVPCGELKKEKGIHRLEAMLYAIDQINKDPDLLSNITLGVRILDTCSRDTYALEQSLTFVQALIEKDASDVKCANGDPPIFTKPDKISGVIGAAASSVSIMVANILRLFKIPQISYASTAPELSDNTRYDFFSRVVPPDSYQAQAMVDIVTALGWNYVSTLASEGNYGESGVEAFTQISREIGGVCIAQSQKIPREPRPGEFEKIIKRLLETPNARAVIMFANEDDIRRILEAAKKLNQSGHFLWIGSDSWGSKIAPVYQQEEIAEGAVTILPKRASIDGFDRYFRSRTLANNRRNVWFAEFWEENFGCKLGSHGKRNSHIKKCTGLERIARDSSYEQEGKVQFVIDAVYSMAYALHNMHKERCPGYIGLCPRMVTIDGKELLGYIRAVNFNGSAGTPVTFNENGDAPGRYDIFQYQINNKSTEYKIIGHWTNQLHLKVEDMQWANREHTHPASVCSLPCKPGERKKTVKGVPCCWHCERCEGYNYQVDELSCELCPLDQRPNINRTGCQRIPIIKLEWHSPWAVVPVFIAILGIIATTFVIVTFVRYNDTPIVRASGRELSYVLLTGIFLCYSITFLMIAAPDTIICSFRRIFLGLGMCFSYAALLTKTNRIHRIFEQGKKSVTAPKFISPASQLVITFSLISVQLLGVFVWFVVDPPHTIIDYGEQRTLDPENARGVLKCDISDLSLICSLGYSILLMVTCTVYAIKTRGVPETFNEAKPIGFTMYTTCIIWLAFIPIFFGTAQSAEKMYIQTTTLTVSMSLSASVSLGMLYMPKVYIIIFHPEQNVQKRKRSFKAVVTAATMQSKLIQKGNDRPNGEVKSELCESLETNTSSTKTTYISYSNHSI
`Cc1ccc(CN2CCN(/N=C/c3ccc(C(F)(F)F)cc3)CC2)cc1` registered a z-score of 0.225.

`O=C(Cn1c(=O)n(CC2CCCO2)c(=O)c2ccccc21)c1ccccc1` (stereo unspecified) had a z-score of -1.04. With `COC(=O)Cc1cc(=O)n2[nH]c(C(F)(F)F)nc2n1` the figure was -0.024; with `CCn1c(SCc2cccnc2)nnc1-c1c[nH]c2ccccc12`, 0.0713. Take `Cc1ccc(-c2noc(CCC(=O)NCC3CCCO3)n2)cc1` (stereo unspecified): the z-score was -0.187.

On to `C=CCNC(=S)NNC(=O)c1cccn(Cc2ccc(Cl)cc2)c1=O`, for which the z-score was -0.127. With `O=C1c2ccccc2C(=O)N1CCCCCc1nc(-c2ccccc2)no1` the figure was 1.38; with `Cc1cc2ncn(S(=O)(=O)c3ccc(S(=O)(=O)N4CCOCC4)cc3)c2cc1C`, 0.0555; with `Cc1cc2nnc(SCC(=O)N3CCN(c4ccccc4)CC3)n2c(N)n1`, -0.994. In the case of `Cn1nc(-c2ccc(Cl)cc2)c2cc(C(=O)N3CCN(c4ccccn4)CC3)sc21`, the z-score is -0.534.

`NC(=S)N/N=C/c1ccc(-c2cc(Cl)cc(Cl)c2)o1` showed a z-score of 0.987. To `CCNc1nc(NCC)nc(OCCOC(=O)COc2ccc(Cl)cc2Cl)n1` belongs -0.468; to `COc1cc(OC)nc(S(C)(=O)=O)n1`, -0.0178. With `COc1ccc(CCNC(=O)CN2C(=O)c3ccccc3S2(=O)=O)cc1OC` the figure was -0.716; with `CCN1CCN(Cc2ccc(OC)c(OCc3ccccc3)c2)CC1`, 0.316; with `O=C(NC1CC2CCC(C1)N2C(=O)NCc1ccccc1)NC12CC3CC(CC(C3)C1)C2` (stereo unspecified), -0.235.

Turning to `Cc1ccc(C)c(NC(=O)C2C3CCCC2C3c2ccccc2)c1` (stereo unspecified), the z-score came out at 0.174.

The compound `O=C(CCC(=O)NC1CC1)Nc1nnc(C2CCCCC2)s1` gave a z-score of -0.164. For `Cc1ccc(CC2(O)CC(C)N(C)CC2C)c(C)c1` (stereo unspecified), the z-score was -0.292.

With `COC(=O)c1cc(C(=O)Nc2ccc(C)cn2)cc([N+](=O)[O-])c1`, the z-score was determined as 0.462. As to `CCOc1ccc(OCC)c(NC(=O)C2CCN(c3ncccn3)CC2)c1`, the z-score was determined as 0.239. On to `c1coc(Cn2c(SCc3nc4ccccc4[nH]3)nnc2-c2cccs2)c1`, for which the z-score is -0.59. To `O=C(O)/C=C\C(=O)Nc1ccc(Oc2ccccc2)cc1` belongs -0.219; to `CN(C)CCCN(C(=O)c1sc2ccccc2c1Cl)c1nc2ccc(F)cc2s1`, -0.181.

As for `O=C(c1cccc(F)c1)N1CCCN(C(=O)c2cccc(F)c2)CC1`, the z-score is 0.0199. To `CCOc1ccc(NC(=O)C2CCC(CNc3c(N4CCOCC4)c(=O)c3=O)CC2)cc1` (stereo unspecified) belongs -0.502; to `Cc1cc(=O)oc(C)c1C(=O)NCC(C)NC(=O)c1c(C)cc(=O)oc1C` (stereo unspecified), -0.129; to `Cc1ccc2nc(N(CCN(C)C)C(=O)/C=C/c3cccs3)sc2c1`, -0.426. `CC(=O)CSc1nnc(NC(=O)CCc2ccccc2)s1` yielded a z-score of 0.11. With `CCN(CC)C(=O)C(=O)N/N=C/c1cccc(Br)c1` the figure was -0.0265.

`O=C(NCc1ccc(Cl)cc1)c1cc2c(nc3sccn32)s1` had a z-score of -0.423. Compound `COc1ccccc1NC(=S)NNC(=O)c1cc(C)n(C)n1` had a z-score of -0.168.

For `c1ccc(-c2cn3c(n2)SCC3)cc1`, the z-score is -0.712. `Cc1ccc(CSCC(=O)Nc2ccc3c(c2)OCO3)cc1` came in with a z-score of 1.73. `COc1ccc(OCC(=O)Nc2ccc(N3CCOCC3)c(Cl)c2)cc1` had a z-score of -0.665. `CCCCC(=O)Nc1ccc(NC(=O)CC)cc1OC` yielded a z-score of -0.0947. The compound `O=C(NC1CCCC1)C(c1cccs1)N(CC1CCCO1)C(=O)Cc1cccs1` (stereo unspecified) gave a z-score of 0.558.

Turning to `CCCOc1ccccc1C1CC(=O)NC2=C1C(=O)CCC2` (stereo unspecified), the z-score is -0.715. Turning to `Cc1ccc(NC2=CC(=O)CCC2)cc1C`, the z-score was -0.205. In the case of `NC(=O)C1CCN(C(=O)CN2CCN(c3cccc(C(F)(F)F)c3)CC2)CC1`, the z-score was found to be 0.6. With `CC(C)N1CCc2c(sc(NC(=S)NC(=O)c3ccccc3)c2C#N)C1`, the z-score amounted to 0.514. In the case of `CCOc1cc(N2CCOCC2)c(OCC)cc1NC(=O)CCS(=O)(=O)c1ccc(Cl)cc1`, the z-score is 0.22.

As to `COc1ccc(-c2cc(OC(=O)c3ccc(F)cc3)c3c(C)oc(C)c3c(=O)c2)cc1`, the z-score was 0.838.

With `COc1ccccc1NCC(=O)N/N=C(\C)c1ccc(Br)s1`, the z-score was -0.279.

The compound `COc1cc(C)c(N(C(C)=O)c2ccccc2)c(C)c1` registered a z-score of 0.803. The compound `OC(COC1CCCCC1)CN1CCN(c2ccccc2)CC1` (stereo unspecified) registered a z-score of 0.212.

With `C=CCOC(=O)C(C#N)c1nc2ccccc2nc1N1CCN(c2ccccc2OCC)CC1` (stereo unspecified), the z-score amounted to 0.34. The compound `Cc1cc(C)c(OCCOCCN2CCNCC2)c(C)c1` returned a z-score of 0.331. As for `Cn1c(=O)n(Cc2ccccc2F)c(=O)c2c1nc1n2CCCN1CCc1ccccc1`, the z-score is -0.165.

Compound `CCN(CC)c1ccc(NC(=O)CN2C(=O)CSc3ncccc32)c(C)c1` displayed a z-score of -0.253. With `CCOc1cccc(C(=O)N2CCCCC2c2cccnc2)c1` (stereo unspecified) the figure was -0.337; with `CCOC(=O)C1CCCN(C(=O)CN(c2ccc(OC)cc2)S(=O)(=O)c2c(C)noc2C)C1` (stereo unspecified), -0.0596.

For `COc1ccc(-c2noc(CCN3C(=O)c4ccccc4C3=O)n2)cc1OC`, the z-score was -0.0499. Compound `O=C(c1cn(-c2ccccc2)nc1-c1ccncc1)n1nnc2ccccc21` gave a z-score of -0.534. As to `CCc1ccc(C2N3CC4([N+](=O)[O-])CN2CC([N+](=O)[O-])(C3)C4(C)C)cc1` (stereo unspecified), the z-score turned out to be 0.152. The compound `Cc1cc(C)n2nc(SCN3C(=O)c4ccccc4C3=O)nc2n1` had a z-score of -0.852.

Compound `COC(CN(C(=O)CCl)C(C(=O)NC1CCCCC1)c1ccc(Cl)cc1)OC` (stereo unspecified) displayed a z-score of -0.0173. As for `Cc1cc(OCc2cn3cccnc3n2)ccc1Cl`, the z-score was -0.0973. `CCOc1cc(C(=O)N2CCN(C/C=C/c3ccccc3)CC2)cc(OCC)c1OCC` returned a z-score of -0.121. Take `CC(=O)NCC(=O)N(C)C(C(=O)Nc1ccc2c(c1)OCCO2)c1ccccc1` (stereo unspecified): the z-score worked out at 0.411. The compound `COc1ccccc1NC(=O)C(=O)N/N=C/c1cccs1` gave a z-score of -0.198. `COc1ccc(N(C(=O)c2ccccc2OC(C)=O)C(C)C2CC2)cc1` (stereo unspecified): the z-score is 0.376. Turning to `COc1ccc2nc(Sc3c([N+](=O)[O-])nc(C)n3Cc3ccccc3)[nH]c2c1`, the z-score is -0.169. Take `CC(C)n1cc(/C=C(\C#N)S(=O)(=O)c2ccccc2)c2ccccc21`: the z-score was -0.867. `O=C(NCc1ccco1)c1ccc(Cn2c(=O)c3ccccc3n(Cc3cccc(F)c3)c2=O)cc1` showed a z-score of -0.182. As to `O=C(NN=C1C2CC3CC(C2)CC1C3)c1cccs1`, the z-score was determined as 0.589.

On to `Cc1c(Cc2ccc3c(c2)OCO3)sc(NC(=O)C(C)(C)C)c1C#N`, for which the z-score was determined as 0.122. As for `CC(C)(C)c1ccc(S(=O)(=O)N2CC(=O)Nc3ccccc32)cc1`, the z-score was -0.23. As to `O=C(CSc1nc2ccccc2s1)N1c2ccccc2Sc2ccc(C(F)(F)F)cc21`, the z-score came to 0.197. `CC1=C(C(N)=O)C(c2sccc2C)n2nnnc2N1` (stereo unspecified) displayed a z-score of 0.0641. To `Cc1ccc(-c2csc(NC(=O)C3=NN(c4ccccc4)C(=O)CC3)n2)cc1` belongs 0.0259; to `CCSc1nnc(NC(=O)C2C3C=CC(C3)C2C(=O)O)s1` (stereo unspecified), -1.01. To `COc1ccc2ccc3c(c2c1)N=C[C@]1(O3)N(C)c2ccccc2C1(C)C` belongs -0.024; to `Clc1ccc2[nH]c(-c3ccccc3)cc2c1`, -0.113.

Compound `CCCCc1ccc(NC(=O)COc2ccc(C(=O)Nc3ccccc3OCC)cc2)cc1` returned a z-score of -0.373.

The compound `CSc1ccccc1-c1nnc(-c2ccccc2)o1` gave a z-score of -0.616.

Consider `COc1ccc(S(=O)(=O)N(C)CC(=O)NCCC2=CCCCC2)cc1C`, for which the z-score was -0.149. With `O=C(Nc1ccc2nsnc2c1)NC1CCCCC1` the figure was -0.224; with `CCC/C(=N/NC(=O)c1cccc(Cl)c1)c1ccccc1`, active: 5.45. Compound `Fc1ccc(-c2ccc(-c3nn4c(-c5ccco5)nnc4s3)o2)cc1` had a z-score of 1.38. Regarding `CC1(C)N=C(c2ccccn2)C(C)(C)N1O`, the z-score worked out at 0.321. Consider `CC(CCc1ccccc1)NC(=O)C(=O)NCc1ccccc1` (stereo unspecified), for which the z-score is -0.0826. With `COc1ccc(Cn2nnnc2C(c2ccc(C)cc2)N2CCN(C3CCCC3)CC2)cc1` (stereo unspecified), the z-score was 0.353. With `COc1ccc(N2CCN(C(CNS(=O)(=O)c3cccs3)c3cccnc3)CC2)cc1` (stereo unspecified) the figure was 0.509; with `CCCC1CCC(C2=N/C(=C\c3ccc(OC)c(OC)c3)C(=O)O2)CC1` (stereo unspecified), 0.153. Take `CC(C)CC(=O)N1CCC(O)(CS(=O)(=O)Cc2ccccc2Cl)CC1`: the z-score was -0.0509. Consider `COC(=O)CSc1nc(C)c2ccc(OC)cc2n1`, for which the z-score is -0.356. To `Cc1ccc(C(c2c(C)nn(-c3ccccc3)c2N)c2c(C)nn(-c3ccccc3)c2N)cc1` belongs -0.202. Consider `COC(=O)c1ccc(NC(=O)c2cccc(Cl)c2)o1`, for which the z-score was -0.0827. `O=C(CSc1nc2c([nH]c3ccccc32)c(=O)n1-c1ccc(F)cc1)NCc1ccco1` showed a z-score of 1.22. `Cn1c(O)c(C2=c3ccccc3=NC2=O)[nH]c1=S` showed a z-score of 0.0696. With `CC(CC(=O)NC1CCCC1)c1ccccc1` (stereo unspecified) the figure was 0.103; with `Cc1c(C(=O)O)cccc1-n1c(C)cc(/C=N/NC(=O)c2cc3ccccc3o2)c1C`, 0.261. `Cc1cc(NC(=O)CCC(=O)N(Cc2ccco2)C(C)(C)C(=O)NC2CCCCC2)no1` gave a z-score of -0.272. In turn, `NC(=O)c1ccccc1NC(=O)/C=C/c1ccccc1` gave a z-score of -0.217. The compound `COc1cc(OC)cc(-c2nc3ccccc3c(=O)n2NC(=O)c2cccnc2Cl)c1` displayed a z-score of -0.0673.

As to `O=c1oc(-c2cccs2)nc2sc3c(c12)CCCCC3`, the z-score was 0.0702.

The compound `CC(C)NC(=O)C(OC(=O)c1ccccc1)C(OC(=O)c1ccccc1)C(=O)O` (stereo unspecified) returned a z-score of -0.107. As to `CCCn1nc(NC(=O)c2cccs2)c2cc3ccccc3nc21`, the z-score was -0.864.

For `Cn1c(=O)c2c(ncn2CC(=O)OCC(=O)NC(c2ccccc2)c2ccccc2)n(C)c1=O`, the z-score is 0.0294. The compound `CCC(NS(=O)(=O)c1ccc(C)cc1)C(=O)N1CCC2(O)CCCCC2C1` (stereo unspecified) yielded a z-score of -0.573. `c1coc(-c2nc(-c3ccncc3)no2)c1` showed a z-score of 0.167.

For `COc1ccccc1N1C(=O)CC(Sc2n[nH]c(-c3cccc(C)c3)n2)C1=O` (stereo unspecified), the z-score was -0.119. `CCOC(=O)C(C)Sc1ncnc2nc[nH]c12` (stereo unspecified) registered a z-score of -0.412. To `CCOc1ccc2nc(NC(=O)CS(=O)(=O)c3ccc(C)cc3)sc2c1` belongs -0.503; to `Cc1nc2ccccc2c(=O)n1CCN1CCOCC1`, -0.157; to `COc1ccc(N(CC(=O)NCc2ccco2)S(C)(=O)=O)cc1`, -1. `C(=C\c1nc(N2CCCC2)c2ccccc2n1)/c1ccccc1` showed a z-score of -0.18. With `CCOC(=O)Nc1c(C(=O)OC)[nH]c2cccc(OC)c12` the figure was -0.131; with `Cc1ccc(Nc2nc3ccccc3[nH]2)nc1`, -0.646. Compound `O=C(NC1CCCCCCC1)c1ccco1` returned a z-score of -0.57.
